# According to PubChem BioAssay AID2546 (National Center for Advancing Translational Sciences (NCATS), 2010):
# Hit rate of the full screen: of about 310,000 compounds, about 11,000 (3.5%) were called active. Inconclusive results, whose numbers are uncertain, are shown with a selection of clear calls. Calls come from the whole dose curve; as a rule, active = well fitted inhibition curve with a large enough effect; inconclusive = small, poorly fitted or top-dose-only effect, or effect the other way; inactive = flat fitted curve, though single readings scatter. Potencies of inconclusive entries are left out as doubtful fits.
# Experiment: VP16 counterscreen qHTS for inhibitors of ROR gamma transcriptional activity;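 note: Gal4-VP16 expression switched on by copper sulfate through the metallothionein promoter; nearly all actives have a fitted effect of over 50% in size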
# Details: Drosophila S2 Gal4-VP16 UAS-luciferase, luminescence, 20 h; series mostly up to 53.6 µM
# Potency is the fitted concentration of half-maximal effect; tags give direction and shape of the fitted curve.
row,Structure (SMILES),Potency
1,O=C(Nc1cccc(C(F)(F)F)c1)c1cccnc1N1CCN(c2ccccc2)CC1,"inconclusive [inhibitor, single point]"
2,CC(=O)N(C)c1ccc(NC(=O)c2ccc([N+](=O)[O-])cc2Cl)cc1,"inconclusive [activator, single point]"
3,CCc1ccc(CCC(=O)Nc2sc(C)c(C)c2C(=O)OC)o1,"inconclusive [inhibitor, single point]"
4,COCC(=O)N/N=C\c1ccc(OC/C=C/c2ccccc2)c(OC)c1,"inconclusive [inhibitor, single point]"
5,Cc1ccc(-n2c(=S)[nH]c3nc4c(cc3c2=O)COC(C)(C)C4)cc1,"inconclusive [inhibitor, single point]"
6,COc1cccc([C@@H]2Oc3ccc(Br)cc3C(=O)[C@H]2OC(=O)NCCOc2ccccc2)c1,inactive
7,C[C@H](NC(=O)c1[nH]cnc1C(=O)Nc1ccc(CNC(=O)OC(C)(C)C)cc1)C(=O)OCc1ccccc1,"inconclusive [inhibitor, single point]"
8,Cc1ccc(C(NC(=O)NC(C)c2ccccc2)C(Cl)(Cl)Cl)cc1F (stereo unspecified),"inconclusive [inhibitor, single point]"
9,C=CCc1cccc(/C=N/NC(=O)CNc2ccccc2)c1O,"inconclusive [inhibitor, full curve]"
10,[C-]#[N+]/C(C#N)=C\c1cc(C(C)(C)C)c(O)c(C(C)(C)C)c1,active: 8.91 µM
11,O=C(Cn1c(COc2ccccc2)nc2ccccc21)Nc1cccc(Cl)c1,"inconclusive [inhibitor, single point]"
12,O=C(CCCn1c(=S)[nH]c2ccccc2c1=O)N1CCCCC1,"inconclusive [inhibitor, single point]"
13,N#C/C(=C(/O)COC(=O)CCc1ccc(S(=O)(=O)N2CCOCC2)cc1)c1nc2ccccc2[nH]1,active: 20 µM
14,COc1ccccc1N1CCN(/N=C\c2ccc(C)o2)CC1,"inconclusive [inhibitor, single point]"
15,CN(C(=O)Cc1ccccc1OC(=O)c1ccccc1)c1ccccc1I,inactive
16,CCNC(=S)NNC(=O)c1cc(CC(C)C)nc2ccccc12,"inconclusive [inhibitor, single point]"
17,N#CC(C#N)=C1c2cc(S(N)(=O)=O)ccc2-c2ccc(S(N)(=O)=O)cc21,inactive
18,CCN(CCO)Cc1csc2ccc(C(C)(C)C)cc12,"inconclusive [inhibitor, single point]"
19,Cc1cc(C(=O)N/N=C/c2ccc(-c3ccccc3Cl)o2)n[nH]1,"inconclusive [inhibitor, single point]"
20,COCCCN=Cc1c(C)[nH]n(-c2ccc(Br)c(C)c2)c1=O,active: 6.31 µM
21,CCCCCOc1ccc(CSC(=N)N)cc1[N+](=O)[O-],inactive
22,CC(C)c1onc(C(=O)Nc2sc3c(c2C#N)CCC3)c1[N+](=O)[O-],"inconclusive [inhibitor, single point]"
23,Cc1cc(Cl)c(OCCOCCN2CCCCC2)c(Br)c1,"inconclusive [inhibitor, partial curve]"
24,COc1ccc(/C=C/c2nc3ccccc3c(=O)o2)cc1,active: 7.94 µM

row,Structure (SMILES),Potency
1,Cc1cc(C)c(C2C3=C(Nc4c2c(C)nn4-c2ccccn2)c2ccccc2C3=O)c(C)c1 (stereo unspecified),"inconclusive [inhibitor, single point]"
2,Cc1c(Cl)ccc2c1NC(=O)[C@]21N[C@@H](Cc2ccccc2)[C@H]2C(=O)N(c3ccc(F)cc3)C(=O)[C@H]21,"inconclusive [inhibitor, single point]"
3,CCC1(CC)Cc2ccccc2-c2nc(NN)[nH]c(=O)c21,active: 15.8 µM
4,COC(=O)CCCn1nc(NC(=O)COc2ccc(F)cc2)cc1C,inactive
5,CCOC(=O)CN1C(=O)/C(=C2\SC(=S)N(NC(=O)c3cccnc3)C2=O)c2ccccc21,"inconclusive [inhibitor, single point]"
6,CCCCOC(=O)CCc1c(C)n[nH]c1C,inactive
7,CCCn1c(=O)c(C(=O)NNS(=O)(=O)c2ccc(Cl)cc2)c(O)c2ccccc21,"inconclusive [inhibitor, single point]"
8,CSc1cccc(NC(=S)N2CCC(c3ccccc3)C2)c1 (stereo unspecified),"inconclusive [activator, single point]"
9,COc1ncc2nc(-c3cn(C)c4ccccc34)c(=O)n(CCc3ccccc3)c2n1,inactive
10,S=c1[nH]nc(-c2cccnc2)n1-c1ccccc1,"inconclusive [inhibitor, single point]"
11,Cc1ccc(C(C(=O)NC2CCCCC2)N(Cc2ccco2)C(=O)C2COc3ccccc3O2)o1 (stereo unspecified),"inconclusive [inhibitor, single point]"
12,CCN(CC)C1CC(=O)N(c2cccc(C)c2)C1=O (stereo unspecified),active: 7.08 µM
13,CC1(C)CC(=O)C(C(C2=C(O)CC(C)(C)CC2=O)c2cccnc2)C(=O)C1 (stereo unspecified),"inconclusive [inhibitor, single point]"
14,Cc1ccc(Cn2c(NCCc3ccccc3)nc3c2c(=O)n(C)c(=O)n3C)cc1,"inconclusive [inhibitor, single point]"
15,O=C(/C=C/c1cccnc1)c1ccc(F)c(F)c1,"inconclusive [inhibitor, single point]"
16,CCCC(=O)NC1=C(C#N)C2(CCCC2)Cc2ccccc21,"inconclusive [inhibitor, partial curve, poor fit]"
17,CCc1nc2ccc(C(=O)N3CCN(c4cc(C)ccc4C)CC3)cc2nc1CC,inactive
18,CCCCc1cc2c(cn1)=C(OC(=O)c1cnc3ccccc3n1)C(C)(OC(=O)CC)C(=O)C=2 (stereo unspecified),inactive
19,O=C(CCN1C(=O)/C(=C\c2cccs2)SC1=S)NC1=NCCS1,"inconclusive [inhibitor, single point]"
20,Cc1cccc(-n2ncc(Cl)c(Cl)c2=O)c1,active: 14.1 µM
21,COc1ccc(OC)c(Nc2cc(C(=O)NCCCN3CCOCC3)c3ccccc3n2)c1,inactive
22,S=C(Nc1cccc(Cl)c1)NC1CCCCC1,active: 10 µM
23,COc1ccc(OC)c(-c2csc(NC(=O)CSc3ccc([N+](=O)[O-])cc3)n2)c1,"inconclusive [activator, single point]"
24,O=[N+]([O-])c1cc([N+](=O)[O-])c2c(=Nc3ccccc3)n(-c3ccccc3)n(O)c2c1,"inconclusive [inhibitor, single point]"

row,Structure (SMILES),Potency
1,Cc1ccc(COCCN2CCN(S(=O)(=O)c3ccccc3)CCC2=O)cc1,inactive
2,CSCC(=O)N1CCC(n2nccc2NC(=O)c2ccc3c(c2)OCO3)CC1,"inconclusive [inhibitor, single point]"
3,O=C(NNc1nc2ccccc2s1)C1CC1,inactive
4,Cc1cc(NC(=O)c2cnn3cccnc23)n(-c2ccccc2)n1,inactive
5,CCCCN(C)CCNC(=O)c1ccc(Cn2c(=S)[nH]c3ccc(Br)cc3c2=O)cc1,"inconclusive [inhibitor, partial curve]"
6,C=CCN(CC=C)S(=O)(=O)c1ccc(NC(=S)NC(=O)/C=C/c2ccc(C)cc2)cc1,"inconclusive [inhibitor, single point]"
7,COc1cc(Br)c(/C=C/c2ccc3cccc(O)c3n2)cc1OC,active: 3.16 µM
8,COc1ccc(N(C)C(=O)c2ccc3nc(-c4ccccc4)c(-c4ccccc4)nc3c2)cc1,inactive
9,CCn1cc(/C=N\NC(=O)Cc2ccc(Cl)cc2)cn1,"inconclusive [inhibitor, single point]"
10,CC(/C=N/n1c(-c2ccco2)n[nH]c1=S)=C\c1ccco1,"inconclusive [inhibitor, single point]"
11,COc1ccc(C2C=C(c3ccc(F)cc3)NC(=S)N2)cc1OC (stereo unspecified),"inconclusive [inhibitor, single point]"
12,Cc1ccc(CCNC(=O)c2cccc(N3CCCC3=O)c2)cc1,inactive
13,O=C(CN1CCOCC1)Nc1nc(-c2ccccc2Cl)cs1,inactive
14,Cc1cc(S(=O)(=O)Nc2ccc(F)cc2)c(C)s1,"inconclusive [inhibitor, single point]"
15,COc1ccccc1NC(=O)CSc1ccc(-c2ccccn2)nn1,inactive
16,O=C(c1ccccc1-n1cccn1)N1CCc2c([nH]c3ccccc23)C1c1ccccn1 (stereo unspecified),"inconclusive [activator, single point]"
17,c1ccc(-c2c[nH]c3[n+]2CCCCC3)cc1,"inconclusive [inhibitor, single point]"
18,CC(C)CC(=O)Nc1nnc(-c2ccco2)s1,"inconclusive [inhibitor, full curve]"
19,CCOc1ccccc1C(=O)N/N=C/c1c[nH]c2ccccc12,"inconclusive [inhibitor, single point]"
20,COc1ccc(C2=NN(C(N)=S)C(c3ccco3)C2)cc1 (stereo unspecified),"inconclusive [inhibitor, single point]"
21,Cc1c(Cl)cccc1NC(=S)/C(=C(\[O-])c1ccc(Cl)s1)[n+]1ccccc1,active: 5.62 µM
22,CC1CCN(C(=O)Cn2nnc(-c3ccc(C(C)C)cc3)n2)CC1,"inconclusive [inhibitor, single point]"
23,CN(Cc1ccccc1)C(=O)c1ccc([N+](=O)[O-])o1,"inconclusive [activator, single point]"
